# Measured values reported in the supplement of paper PMC11417369.
# ± gives the standard deviation of the averaged measurements. The list shows a part of the results.
# System: PfAP2-G AP2 domain (GST-tagged)
# Test: gcPBM binding intensity (ln(normalized median fluorescence intensity)); higher = stronger DNA binding
# How it was run: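 Binding intensity is defined as the maximum Masliner-normalised natural-log median intensity across replicate spots for either probe orientation. It was measured on an Agilent 4 × 180k array of primer-extended double-stranded 36-bp intergenic genomic probes and negative controls, to which GST-tagged P. falciparum DNA-binding domains made in E. coli were applied for 1 h in 1× PBS with 1% milk, 0.2 mg/ml BSA, 0.5% salmon testes DNA and 0.03% Triton X-100. Detection was by Alexa488 anti-GST antibody and scanning at 488 nm.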
row,Sequence,gcPBM binding intensity (ln)
1,CTTGTATTTAAACACACACACACTTTCTTTTTTTAA [CACACA_site5133],10.05 ± 0.071
2,AAAAATAAAGGGCGAAAAAAAAAAAAAAAAAAAAAA [GTGCAC_negctrl_site671],9.88 ± 0.33
3,TTAATATTAATATATTGTACATATATGCACATATTT [XGTACX_site6569],10.9 ± 0.67
4,AATATTATAATATAAACACACAAAATTCAATTATAT [CACACA_site3789],9.995 ± 0.049
5,AACGTTCATATTTCCACACACAAAAAATAAATATAA [CACACA_site3344],10.2 ± 0.34
6,TTTTTTATGAACACGTCACACATCATTAAAATGTTT [CACACA_site5934],10.2 ± 0.2
7,TTTAATATTTTTCAATGTAGAAAGTTTGTCTGTTAT [CACACA_negctrl_site973],9.93 ± 0.16
8,AGTTATAAACATATGTGTACTTATAAAAACATATAG [XGTACX_site3268],11.6 ± 0.77
9,TCACACATATATTCATGTACATATTAATATTTCCAT [XGTACX_site5387],11.1 ± 0.54
10,TTGACACGTATATGCACACACCCGTAAGTGTCCATT [CACACA_site2764],10.5 ± 0.28
11,ATATTTTATTATTGTTGTACTTTTTTTTGATTGTTT [XGTACX_site4090],11.4 ± 0.73
12,TTTCCTATTTAATATAGTACATAAGAAATAATTTTA [XGTACX_site5952],10.9 ± 0.73
13,TTGATGATATAAAAAAGTACTTATATTATATTATAT [XGTACX_site6492],11.3 ± 0.67
14,TTTTGTAAAAAAAAAAAAAAAGGAAAATTAAAATAA [CACACA_negctrl_site803],9.685 ± 0.021
15,ACATATTTTTAATACACACTCAAAAAAGTACTTAAC [CACACA_site3014],11.5 ± 0.88
16,TATGAAATTTTAATTACACACAGGAAAATAAAATGG [CACACA_site4935],10.2 ± 0.16
17,TAAAAAAAATATTTTTGTACGAATTAAATTTTTTTT [XGTACX_site4838],10.7 ± 0.32
18,TACATATATATTATATGTACTTATATTTTTATAATA [XGTACX_site3452],11.4 ± 0.71
19,ATATACATATCCATATTTATATCTATATTTAAAACA [CACACA_negctrl_site747],9.715 ± 0.007
20,AACCACATACATATAACACACATATACAATCTATAT [CACACA_site1987],10.1 ± 0.13
21,AAATAACACTAATGATGTACTCAACTATTTATAATT [XGTACX_site8183],11.2 ± 0.79
22,AAAAAAAGTAAATGTTGTACTATAATATGTAATATA [XGTACX_site7966],10.9 ± 0.46

row,Sequence,gcPBM binding intensity (ln)
1,TATATGATATAATATACACACATACAGATATATATA [CACACA_site4440],9.84 ± 0.071
2,AAATTATTAAGTGATATAATATTCTATAGATGGGGA [CACACA_negctrl_site168],9.84 ± 0.099
3,TTTTCCAATTTAAAAGCATGCATCTGTTTTTTTTTT [TGCATGCA_site482],9.53 ± 0.19
4,AGAGGTAGAGAGAAAACATGCATAATGATTTTCATA [TGCATGCA_site958],9.6 ± 0.23
5,TAGAGGTATAAAATATGTACTTATAAAAACATGAAT [XGTACX_site8916],11.4 ± 0.73
6,TAAATCAAAATAATTTAACACACAATTTTAATACTG [CACACA_site8744],9.715 ± 0.049
7,GATAAGGTATTCAAATGTACAAAATGTTTTATATAA [XGTACX_site6863],10.7 ± 0.21
8,TTTTTATAACTATATTATATAACTTTTGTACGAACT [CACACA_negctrl_site1423],10.7 ± 0.53
9,ACATATAAATAAATAAATATATATATATATATATAT [GTGCAC_negctrl_site378],10.1 ± 0.76
10,TATTTACACCTAATCACAAATAAAATAAAATCAAAT [CACACA_negctrl_site531],10.1 ± 0.18
11,TATATATTTTGTGTCTGTACACATATTATTAATTCC [XGTACX_site7507],11.4 ± 1
12,TTTTTTTATCAATGTTGTACTTTTTTTTTTTTCCAT [XGTACX_site8864],11.6 ± 0.83
13,TTCAAATATAAATACACACACATAGCTACAAAATAA [CACACA_site4172],10.2 ± 0.2
14,TATAAGAGAATATATACACACAAAAATATATACAGT [CACACA_site1668],10.1
15,TACACGCATGGACACACACACACACCCATATATATA [CACACA_site4522],11 ± 0.6
16,ATATATATTATATAAGTGCATAATATTCTTTCTTTT,9.765 ± 0.078
17,TTTTTCATTTCTGCATTTATTTATAAATAAATATTT [CACACA_negctrl_site368],10.06 ± 0.042
18,TAAATACATAAATACACACACATATATTATATATAT [CACACA_site4310],9.98 ± 0.12
19,ATATTAACTATCATAACACACACAGTAGACATATTT [CACACA_site6941],10.2 ± 0.26
20,TATCATATATAAAGAGGTACGTAAGAATAGAAAATT [XGTACX_site798],11.1 ± 0.38
21,TTCTTAAAAGGAAAGGTGCAACTTTATCATTTTCTT,9.82 ± 0.042
22,GTATATAATTAAAGTTGTACCCTTAAAAAAGGGAAA [XGTACX_site7278],11.4 ± 0.91

row,Sequence,gcPBM binding intensity (ln)
1,GATAACTTTTTTCTCACACACAAATATTTTAATCAT [CACACA_site7685],10.1 ± 0.17
2,AAAAATAAAAAAATAAATACGTATACATATATAATA [TGCATGCA_negctrl_site551],10.1 ± 0.11
3,GAACAAATTAAATAGGTGCATTAACATGTTCTATTT [GTGCAC_site9729],9.955 ± 0.021
4,TCTGTATATTATTCAAGTACACAATATAAATATAAA [XGTACX_site7241],11.4 ± 0.82
5,TATTGTTTTTTTTACTGTACACAAGTAAATGAAAAA [XGTACX_site790],11.6 ± 1.3
6,AAAAAATTCAAAAGGTGTACAACATTATATTATTCC [XGTACX_site5118],11.6 ± 0.78
7,TTATATATAAGTTTATTCATTTTTTTTTTTTTTTTT [XGTACX_negctrl_site573],9.995 ± 0.007
8,TAAATAAAAAAGAATACACACAGCATGCATAAATAT [CACACA_site237],10 ± 0.028
9,CATATATATCGTAATGCACACATGTAATTTCATAAT [CACACA_site811],10.18 ± 0.042
10,TATAATTATATGTATACACACACATACATTTACATA [CACACA_site9061],10.5 ± 0.53
11,AAAATGAAAATGAAAATGAAAATGGGAAAATGTCAA [TGCATGCA_negctrl_site488],9.98 ± 0.028
12,TCTTATATGATATTTATTTATTTATTTATTTATTCA [GTGCAC_negctrl_site686],9.52 ± 0.19
13,TAACACCAAACTAAATGTACACACATACATAAATAT [XGTACX_site2201],11.2 ± 0.79
14,AATAGTAATTTGAATACACACAATAATATATTTATA [CACACA_site7055],9.96 ± 0.042
15,TAAATGTGAACAATAGAAGTAATAAGAAGAATAAAA [CACACA_negctrl_site1080],10.03 ± 0.021
16,TTTATTTTTTGTGGCACACAGAAGAAACAAGAACAA [CACACA_site1696],10.8 ± 0.59
17,AATGAATAATTATTTTGTACATAATATTATATTTAT [XGTACX_site5350],10.7 ± 0.35
18,AAATTAAATGTAAGCACACATAAATTATACTCATAT [CACACA_site5782],10.02 ± 0.085
19,ACTTATACAAAATGTGCATGTTATATTTACAATAAT [TGCATGCA_site108],10 ± 0.11
20,TTTATTTTTTAATGATGTACTATTTATCCAGAAAAG [XGTACX_site7750],11.2 ± 0.92
21,GGAATAGTAATATATACACACAAATACATATATATA [CACACA_site67],9.99 ± 0.23
22,ATAATGAAAAGGAACATACACACCCCATATAAATAT [CACACA_site3442],10.2

row,Sequence,gcPBM binding intensity (ln)
1,ATAAGCTCATGCAGGTGTACACAAAAAGAAAAAAAA [XGTACX_site2433],11.6 ± 0.81
2,AAAAAAAAATACATATGTACTTATGTATAATGTTGT [XGTACX_site8104],11.1 ± 0.61
3,ATTATACCACCCGATATACACACTTGTAGACATCTT [CACACA_site7944],10.2 ± 0.16
4,TTTTTTTAATTAGTTTGTACATATTGTTATAATATA [XGTACX_site6294],10.8 ± 0.37
5,CATGTTATGATTCCATGTACTTATAGCATTAAAAAA [XGTACX_site8939],11.2 ± 0.71
6,ATAAAAAGGAGACACACACACACACGCATATTTATA [CACACA_site6551],10.3 ± 0.29
7,TATATTAAACCATGTAGTACCTTGAATAAATATTAT [XGTACX_site8254],11 ± 0.67
8,TATAAAAATGTTTACACACACACATAAATATATTTT [CACACA_site2512],10.035 ± 0.007
9,TTTTTTTTTTTTCTGAGTACGAAAAATAGAGATAGA [XGTACX_site3825],11 ± 0.79
10,TGTATAAATATAATCACACATATATATATATATATA [CACACA_site4365],9.96 ± 0.38
11,AACATATATATATATACATGCATATGAACAACGAAT [TGCATGCA_site93],9.955 ± 0.035
12,CAAGAAAATTGACACACACACATATTTATATTTATA [CACACA_site7766],10.2 ± 0.17
13,AAGTTACAAAATCAAAAGGAAAAAATATAAAATAAT [CACACA_negctrl_site561],9.81 ± 0.15
14,CAACTAATATTAAAACGTACATAAATATTTAACAGA [XGTACX_site625],11.3 ± 0.79
15,ATATATATATATATATGTACATATATTTTTATTTAT [XGTACX_site3508],11.2 ± 0.76
16,AAAAAAAATATATATGCACACACAAAAAAACAAATT [CACACA_site8349],10.2 ± 0.15
17,ATCACATATATATATAATATATATATGTATATATTT [GTGCAC_negctrl_site249],9.45 ± 0.11
18,TTGTAATAAAGAATTAAAAAAAAATATATACAGGTA [GTGCAC_negctrl_site150],9.885 ± 0.092
19,TTAAAATAAAGAAAATGTACATAAATAAAAATAAAG [XGTACX_site2280],11.3 ± 0.69
20,TTTTACCTAAATATCACACATATTTAAATATATATA [CACACA_site5597],10 ± 0.15
21,TATACCTTTTTATTCACACATATATGTCATATGTCA [CACACA_site5423],9.95 ± 0.071
22,TTAATTACATGTAATTGTACTTAATTATAAGACATT [XGTACX_site464],11.1 ± 0.86
